Measured values reported in the supplement of paper PMC12067093, “Discovery and optimisation of a covalent ligand for TRIM25 and its application to targeted protein ubiquitination” (Chemical Science, 2025).
About 21,000 targets were measured; listed, in parts, are those with the largest changes and a random draw of the rest.

Compound: Cc1cc(ccc1-c1ccccc1)C(=O)N1CCCN(CC1)C(=O)CCl [compound 10]
Test: probe-labelled cysteine peptide fold change vs DMSO (competition) (log2 fold change); higher = less target engagement (more negative = stronger competition)
Conditions: THP-1, incubation time: 4 h
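Note: competitive profiling in live THP-1 cells: cysteine peptides tagged with an iodoacetamide desthiobiotin (IA-DTB) probe, intensity after compound treatment relative to DMSO-treated cells.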

Chain of UniProt Q6UVJ0 (Q6UVJ0 whole entry, looked up): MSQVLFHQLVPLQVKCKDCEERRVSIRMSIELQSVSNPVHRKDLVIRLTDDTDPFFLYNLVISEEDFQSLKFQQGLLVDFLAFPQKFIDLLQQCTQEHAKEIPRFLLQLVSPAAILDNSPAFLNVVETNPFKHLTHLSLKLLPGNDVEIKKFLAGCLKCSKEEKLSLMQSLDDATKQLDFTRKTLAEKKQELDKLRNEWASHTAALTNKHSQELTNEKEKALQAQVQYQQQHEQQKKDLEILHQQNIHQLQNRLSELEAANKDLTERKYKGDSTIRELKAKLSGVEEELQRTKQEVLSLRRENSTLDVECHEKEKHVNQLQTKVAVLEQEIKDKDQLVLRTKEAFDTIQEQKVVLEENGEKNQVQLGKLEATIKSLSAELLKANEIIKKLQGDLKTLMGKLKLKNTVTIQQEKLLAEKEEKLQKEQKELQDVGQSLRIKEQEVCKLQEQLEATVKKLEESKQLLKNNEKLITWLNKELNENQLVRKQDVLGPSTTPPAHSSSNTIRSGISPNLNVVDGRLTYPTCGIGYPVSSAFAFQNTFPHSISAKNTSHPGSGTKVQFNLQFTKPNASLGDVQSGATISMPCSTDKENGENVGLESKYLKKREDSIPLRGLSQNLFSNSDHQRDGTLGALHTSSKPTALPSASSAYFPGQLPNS
Chain of UniProt Q9H4L7 (Q9H4L7 whole entry, looked up): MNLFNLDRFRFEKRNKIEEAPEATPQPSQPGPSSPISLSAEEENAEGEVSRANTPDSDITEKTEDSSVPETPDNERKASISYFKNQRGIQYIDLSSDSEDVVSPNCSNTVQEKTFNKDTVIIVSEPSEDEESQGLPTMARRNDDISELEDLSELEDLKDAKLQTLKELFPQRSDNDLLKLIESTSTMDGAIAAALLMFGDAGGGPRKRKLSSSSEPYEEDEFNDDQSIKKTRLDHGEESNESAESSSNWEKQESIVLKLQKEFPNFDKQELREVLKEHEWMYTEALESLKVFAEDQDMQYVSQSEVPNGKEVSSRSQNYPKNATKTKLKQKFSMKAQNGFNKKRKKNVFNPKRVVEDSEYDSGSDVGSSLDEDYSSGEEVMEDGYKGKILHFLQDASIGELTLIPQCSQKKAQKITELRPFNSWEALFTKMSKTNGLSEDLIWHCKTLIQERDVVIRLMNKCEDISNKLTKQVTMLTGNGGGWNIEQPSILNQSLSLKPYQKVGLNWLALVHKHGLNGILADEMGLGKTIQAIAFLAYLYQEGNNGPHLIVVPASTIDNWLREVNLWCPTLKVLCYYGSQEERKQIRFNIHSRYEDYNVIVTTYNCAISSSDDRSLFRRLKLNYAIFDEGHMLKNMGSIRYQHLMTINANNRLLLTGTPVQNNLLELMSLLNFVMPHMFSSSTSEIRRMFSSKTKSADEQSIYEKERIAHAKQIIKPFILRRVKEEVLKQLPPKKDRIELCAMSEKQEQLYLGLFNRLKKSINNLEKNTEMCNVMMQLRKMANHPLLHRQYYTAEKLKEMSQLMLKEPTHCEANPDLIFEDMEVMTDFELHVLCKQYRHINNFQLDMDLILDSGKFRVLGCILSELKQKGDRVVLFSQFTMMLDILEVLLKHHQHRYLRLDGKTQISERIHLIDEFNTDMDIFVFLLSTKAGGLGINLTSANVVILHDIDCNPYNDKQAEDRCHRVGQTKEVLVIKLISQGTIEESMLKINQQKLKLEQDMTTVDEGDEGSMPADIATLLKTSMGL
Chain of UniProt Q96C34 (Q96C34 whole entry): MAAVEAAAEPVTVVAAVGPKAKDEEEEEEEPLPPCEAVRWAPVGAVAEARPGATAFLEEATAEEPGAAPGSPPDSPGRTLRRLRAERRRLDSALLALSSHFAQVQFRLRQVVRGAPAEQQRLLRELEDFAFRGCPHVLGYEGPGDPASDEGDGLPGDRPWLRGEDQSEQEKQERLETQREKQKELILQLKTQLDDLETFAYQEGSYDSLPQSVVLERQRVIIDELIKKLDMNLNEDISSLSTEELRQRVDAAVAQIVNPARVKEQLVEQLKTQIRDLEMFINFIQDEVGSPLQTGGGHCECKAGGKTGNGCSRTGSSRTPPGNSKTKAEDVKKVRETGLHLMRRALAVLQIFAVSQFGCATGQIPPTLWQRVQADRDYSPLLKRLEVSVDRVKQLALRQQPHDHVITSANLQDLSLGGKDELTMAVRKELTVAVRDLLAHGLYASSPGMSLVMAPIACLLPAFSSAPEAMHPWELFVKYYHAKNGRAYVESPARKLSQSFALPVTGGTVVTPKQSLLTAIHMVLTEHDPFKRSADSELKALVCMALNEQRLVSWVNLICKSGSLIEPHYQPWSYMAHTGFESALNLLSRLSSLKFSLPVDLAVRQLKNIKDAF
Chain of UniProt O94979 (O94979 whole entry, looked up): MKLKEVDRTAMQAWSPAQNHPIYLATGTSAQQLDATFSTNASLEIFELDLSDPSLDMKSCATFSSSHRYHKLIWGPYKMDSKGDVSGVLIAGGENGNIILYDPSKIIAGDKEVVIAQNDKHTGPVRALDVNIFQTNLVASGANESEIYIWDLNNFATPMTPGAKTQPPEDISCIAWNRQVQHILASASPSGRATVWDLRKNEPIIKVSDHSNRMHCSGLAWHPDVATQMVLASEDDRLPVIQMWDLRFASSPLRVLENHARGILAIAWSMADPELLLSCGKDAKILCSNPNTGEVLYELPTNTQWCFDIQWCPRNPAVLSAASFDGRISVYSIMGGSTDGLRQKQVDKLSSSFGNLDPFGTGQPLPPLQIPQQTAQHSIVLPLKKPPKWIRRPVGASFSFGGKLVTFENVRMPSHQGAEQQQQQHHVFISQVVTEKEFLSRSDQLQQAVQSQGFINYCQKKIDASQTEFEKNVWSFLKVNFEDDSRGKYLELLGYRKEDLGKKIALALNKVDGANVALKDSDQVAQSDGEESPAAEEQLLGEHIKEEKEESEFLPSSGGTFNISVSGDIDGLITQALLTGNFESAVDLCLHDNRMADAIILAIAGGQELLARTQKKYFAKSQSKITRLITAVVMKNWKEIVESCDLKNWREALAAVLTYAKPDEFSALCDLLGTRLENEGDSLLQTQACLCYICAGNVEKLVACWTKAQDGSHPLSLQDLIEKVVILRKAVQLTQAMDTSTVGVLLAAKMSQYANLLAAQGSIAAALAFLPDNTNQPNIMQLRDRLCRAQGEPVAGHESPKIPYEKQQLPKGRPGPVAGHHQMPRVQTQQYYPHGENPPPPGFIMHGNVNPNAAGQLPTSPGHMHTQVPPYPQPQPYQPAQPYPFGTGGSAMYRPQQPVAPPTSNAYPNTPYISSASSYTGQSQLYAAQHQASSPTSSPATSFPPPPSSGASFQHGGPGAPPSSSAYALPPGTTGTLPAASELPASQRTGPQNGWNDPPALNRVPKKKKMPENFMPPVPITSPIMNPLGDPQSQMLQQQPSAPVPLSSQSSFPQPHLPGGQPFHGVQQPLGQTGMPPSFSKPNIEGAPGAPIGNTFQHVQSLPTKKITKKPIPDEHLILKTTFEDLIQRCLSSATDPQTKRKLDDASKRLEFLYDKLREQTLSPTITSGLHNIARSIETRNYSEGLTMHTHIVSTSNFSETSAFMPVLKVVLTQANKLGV
Chain of UniProt P49903 (P49903 whole entry, looked up): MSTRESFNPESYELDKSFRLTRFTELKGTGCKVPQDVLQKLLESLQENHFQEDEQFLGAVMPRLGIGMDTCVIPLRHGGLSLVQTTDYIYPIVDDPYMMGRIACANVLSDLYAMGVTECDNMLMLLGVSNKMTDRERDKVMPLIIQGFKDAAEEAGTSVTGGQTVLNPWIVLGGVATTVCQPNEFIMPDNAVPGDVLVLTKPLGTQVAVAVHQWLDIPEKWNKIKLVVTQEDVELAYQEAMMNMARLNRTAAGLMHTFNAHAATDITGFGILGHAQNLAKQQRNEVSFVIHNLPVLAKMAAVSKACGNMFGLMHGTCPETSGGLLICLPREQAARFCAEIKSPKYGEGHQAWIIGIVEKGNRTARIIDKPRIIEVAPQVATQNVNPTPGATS
Chain of UniProt O43818 (O43818 whole entry, looked up): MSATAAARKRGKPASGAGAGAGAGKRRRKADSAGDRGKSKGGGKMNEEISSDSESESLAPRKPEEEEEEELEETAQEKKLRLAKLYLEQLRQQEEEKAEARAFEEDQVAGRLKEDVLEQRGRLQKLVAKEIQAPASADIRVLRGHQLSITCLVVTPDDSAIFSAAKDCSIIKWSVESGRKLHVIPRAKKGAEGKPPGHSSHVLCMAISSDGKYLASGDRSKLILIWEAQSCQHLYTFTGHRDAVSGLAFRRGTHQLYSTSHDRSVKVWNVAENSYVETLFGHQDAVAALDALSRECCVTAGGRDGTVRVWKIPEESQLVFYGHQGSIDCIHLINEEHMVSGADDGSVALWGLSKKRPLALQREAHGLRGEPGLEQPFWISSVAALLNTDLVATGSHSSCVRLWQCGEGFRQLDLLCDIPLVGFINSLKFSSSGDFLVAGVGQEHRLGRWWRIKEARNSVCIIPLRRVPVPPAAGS
Chain of UniProt O00161 (O00161 whole entry): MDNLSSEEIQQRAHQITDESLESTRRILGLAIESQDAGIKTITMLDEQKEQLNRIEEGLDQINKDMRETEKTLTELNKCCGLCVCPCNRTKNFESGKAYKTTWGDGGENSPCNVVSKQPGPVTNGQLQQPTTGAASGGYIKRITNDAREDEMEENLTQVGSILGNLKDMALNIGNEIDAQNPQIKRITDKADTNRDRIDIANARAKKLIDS
Chain of UniProt O75818 (O75818 whole entry, looked up): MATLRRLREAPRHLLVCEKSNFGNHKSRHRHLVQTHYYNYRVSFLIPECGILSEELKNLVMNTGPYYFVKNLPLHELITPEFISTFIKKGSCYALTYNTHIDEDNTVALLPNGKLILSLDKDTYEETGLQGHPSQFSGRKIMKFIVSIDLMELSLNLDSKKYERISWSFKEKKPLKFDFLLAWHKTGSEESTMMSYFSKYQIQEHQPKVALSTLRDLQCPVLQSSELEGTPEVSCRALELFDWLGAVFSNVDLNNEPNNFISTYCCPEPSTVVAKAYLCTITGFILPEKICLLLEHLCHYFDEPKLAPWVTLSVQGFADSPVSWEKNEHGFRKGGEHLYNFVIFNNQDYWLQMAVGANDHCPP

Target	probe-labelled cysteine peptide fold change (10 µM)	probe-labelled cysteine peptide fold change (50 µM)
RNH1_P13489_12_SLDIQSLDIQCEELSDAR (UniProt P13489)	0.429	1.24
SIRT1_Q96EB6_398_CPADEPLAIMKPEIVFFGENLPEQFHR (UniProt Q96EB6)	0.0626	-0.351
SATB2_Q9UPW6_246_ENLSDYCVLGQR (UniProt Q9UPW6)	0.203	-0.0129
SMARCA2_P51531_1296_LMEEDELPSWIIKDDAEVERLTCEEEEEK (UniProt P51531)	-0.106	-0.514
RPS27A_P62979_121+126_ECPSDECGAGVFMASHFDR (UniProt P62979)	-0.12	-0.703
RUNDC1_Q96C34_311_TGNGCSR (UniProt Q96C34)	0.28	0.474
SEPHS1_P49903_306_ACGNMFGLMHGTCPETSGGLLICLPR (UniProt P49903)	-0.122	0.00466
SNAP23_O00161_112_TTWGDGGENSPCNVVSK (UniProt O00161)	-0.235	-1.08
SAE1_Q9UBE0_214_VVFCPVK (UniProt Q9UBE0)	-0.0949	-0.106
SEC23A_Q15436_74_AVLNPLCQVDYR<|>SEC23B_Q15437_74_AVLNPLCQVDYR (UniProt Q15437+Q15436)	-0.0552	0.0546
SACM1L_Q9NTJ5_445_NAWADNANACAK (UniProt Q9NTJ5)	-0.281	-0.157
SEC24B_O95487_1175_GCDNNFIEDVLGYTNFASIPQK (UniProt O95487)	0.0382	0.33
SEC31A_O94979_704_LVACWTK (UniProt O94979)	-0.0777	-0.00286
SND1_Q7KZF4_826_DIQNTQCLLNVEHLSAGCPHVTLQFADSKGDVGLGLVK (UniProt Q7KZF4)	-0.0753	-1.07
RNF213_Q63HN8_614_STDFLPVDCPVR (UniProt Q63HN8)	-0.411	-2.4
SEC24D_O94855_819_EILVNQTAHMLACYR (UniProt O94855)	-0.0866	0.103
SASS6_Q6UVJ0_94_FIDLLQQCTQEHAK (UniProt Q6UVJ0)	0.271	-0.00518
SERBP1_Q8NC51_11_PGHLQEGFGCVVTNR (UniProt Q8NC51)	0.124	-0.0591

Target	probe-labelled cysteine peptide fold change (10 µM)	probe-labelled cysteine peptide fold change (50 µM)
SHMT1_P34896_389_NTCPGDR (UniProt P34896)	0.419	0.998
SEC23A_Q15436_180_MVQVHELGCEGISK (UniProt Q15436)	-0.0283	-0.0698
SMC3_Q9UQE7_972_LEQCNTELK (UniProt Q9UQE7)	0.165	0.484
SAE1_Q9UBE0_134_KPESFFTQFDAVCLTCCSR (UniProt Q9UBE0)	–	0.105
RNF169_Q8NCN4_293_SQSCSDTAQER (UniProt Q8NCN4)	-0.104	-0.518
RPL24_P83731_36_CESAFLSK (UniProt P83731)	-0.167	-0.187
RPP40_O75818_235_DLQCPVLQSSELEGTPEVSCR (UniProt O75818)	0.963	1.11
RPL7A_P62424_199_KTCTTVAFTQVNSEDK (UniProt P62424)	-0.0745	-0.55
SMARCAD1_Q9H4L7_407_ILHFLQDASIGELTLIPQCSQK (UniProt Q9H4L7)	0.141	0.122
SEL1L_Q9UBV2_539_SCHTAVELFK (UniProt Q9UBV2)	0.176	0.261
RTN4_Q9NQC3_1101_YSNSALGHVNCTIK (UniProt Q9NQC3)	-0.955	-2.07
SLFN11_Q7Z7L1_150_EAFCFLK (UniProt Q7Z7L1)	-0.294	-1.25
SMS_P52788_256_TCGDVLDNLKGDCYQVLIEDCIPVLKR (UniProt P52788)	-0.182	-0.461
SIRT2_Q8IXJ6_164_CYTQNIDTLER (UniProt Q8IXJ6)	0.115	-0.0404
SCCPDH_Q8NBX0_238_RWPISYCR (UniProt Q8NBX0)	-0.319	-1.49
RRP9_O43818_460_NSVCIIPLR (UniProt O43818)	0.031	0.0169
SLC44A1_Q8WWI5_98_KYVFFLDPCNLDLINR (UniProt Q8WWI5)	-0.0775	-0.325
SLC43A1_O75387_384_DCVDAPTQGTVLGDAR (UniProt O75387)	-0.165	0.0557
